Data: the supplement of paper PMC11417369
± gives the standard deviation of the averaged measurements. The list shows a part of the results.

system: PfAP2-I AP2 domain 3 (GST-tagged); assay: gcPBM binding intensity (ln(normalized median fluorescence intensity)); higher = stronger DNA binding
Method in brief: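 For binding intensity, the highest Masliner-normalised natural-log median intensity across replicate spots of either probe orientation was taken. Protein bound to the array was stained with Alexa488 anti-GST antibody and scanned at 488 nm. The protein, GST-tagged P. falciparum DNA-binding domains from E. coli at about 25 μg on average, had been applied for 1 h to an Agilent 4 × 180k array of primer-extended double-stranded 36-bp intergenic genomic probes and negative controls.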

| Sequence | gcPBM binding intensity (ln) |
| --- | --- |
| TTTTCGCTTTTATAAAATTATATGAAAAAACTAAAA [XGTACX_negctrl_site139] | 7.69 ± 0.41 |
| TTATGGAAAAATATAACACACAATGATTTTTTATAA [CACACA_site1831] | 7.64 ± 0.48 |
| TACACAAAAATAAACACACACACATATAAATAAATA [CACACA_site6599] | 8 ± 0.18 |
| CCACTAAAGGCATATACACACATTTTTTAAATTGCC [CACACA_site2839] | 7.96 ± 0.63 |
| TGTAATACATGTTGTTGTACAATATCTTTAACTTTT [XGTACX_site1219] | 7.79 ± 0.26 |
| TATAACTATGGGTGTACACATTAATCGTTTTTCTTT [CACACA_site5196] | 7.92 ± 0.3 |
| TATTGTAAAAAAGCAAAATTTATCACCTCCTTATTT [CACACA_negctrl_site172] | 7.44 ± 0.67 |
| AATAATAATTTAAAAAGTACATTCTAATAAACACGT [XGTACX_site1444] | 8.02 ± 0.42 |
| TACTTATTTGATTGGGTGCATATATATAGTATGTAT [GTGCAC_site9845] | 11 ± 0.73 |
| TATTTCAAATGTTATGTGCACATATTAATCCTACTT [GTGCAC_site9738] | 9.54 ± 0.25 |
| AATATCTGAAAATAAAGTACAAACATATTATAAATA [XGTACX_site5738] | 7.7 ± 0.47 |
| AAATAAAATAAAATAAAATAAAATAAAATAAAATAA [XGTACX_negctrl_site142] | 8.01 ± 0.98 |
| TTATTTATGAGGGTGACACACAAAAGAGTGTTAAGA [CACACA_site277] | 7.8 ± 0.67 |
| AAAAAAAAACACGCATGTACATAAAAATAATCATAC [XGTACX_site1086] | 7.96 ± 0.57 |
| CTTGTGCTTTATAGGGTGCACATTTTGTTTTGGTAA [GTGCAC_site9899] | 11 ± 0.46 |
| TGAACACATACATACACACACACAAAAAAAAAAAAA [CACACA_site392] | 7.97 ± 0.59 |
| TTATTAATTATATATAGTACACATTTCACAGATGGG [XGTACX_site2349] | 7.99 ± 0.33 |
| TTTTTTTTTTTTTTTGGTACACATTTTGGTTAATGG [XGTACX_site5109] | 8.12 ± 0.64 |
| AAAATTATGCAGTAGGTGCAATACCCTCGGCTTTTT [GTGCAC_site9556] | 11.1 ± 0.64 |
| ATAAAAAGGTTTAAAAAAAAAAAAAAAAAAAAAAAA [CACACA_negctrl_site412] | 8.23 ± 0.8 |
| GATGAAATATCATTACGTACACAATAGTTTGTATTT [XGTACX_site5143] | 7.81 ± 0.37 |
| AATAATAATAGAAACACACACACATTTTTAAGAATA [CACACA_site6692] | 7.78 ± 0.52 |
| TGAAAAAAAAAATGCACACGCATACAGATAATATGT [CACACA_site4526] | 8.62 ± 0.51 |
| ATTATTGCAATTTAATGTACATAATACAAATTTGCC [XGTACX_site2729] | 8.38 ± 0.42 |
